# Laboratory results from the BET-seq Pho4 binding data (Le et al. 2018).
# The other results are listed elsewhere or left out. Values were computed here from the reads of four pooled replicates and scatter widely.
# Biological target: T1, Pho4 (S. cerevisiae) (UniProt P07270)
# T1 sequence: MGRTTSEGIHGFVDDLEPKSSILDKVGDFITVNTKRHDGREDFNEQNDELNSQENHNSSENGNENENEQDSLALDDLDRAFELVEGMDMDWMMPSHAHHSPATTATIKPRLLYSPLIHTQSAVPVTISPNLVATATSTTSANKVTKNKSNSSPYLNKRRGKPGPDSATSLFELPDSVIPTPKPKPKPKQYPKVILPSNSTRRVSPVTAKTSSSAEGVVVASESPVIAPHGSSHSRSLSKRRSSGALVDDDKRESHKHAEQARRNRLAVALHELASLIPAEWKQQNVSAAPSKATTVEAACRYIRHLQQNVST
# Assay: relative binding free energy (BET-seq); higher = weaker binding
# Conditions: reference: library average
row,Sequence,relative binding free energy [kcal/mol]
1,GTAAGCACGTGATTGA,0.15
2,GGATTCACGTGAGGGC,0.43
3,TTATTCACGTGTATAA,0.31
4,AAGTGCACGTGGTCAT,-0.13
5,TTGTGCACGTGAATAA,0.26
6,CTGAGCACGTGATTTG,0.09
7,TTAATCACGTGAGTAT,0.4
8,GAATACACGTGAGGTT,0.34
9,ACGGGCACGTGGGTGT,-0.28
10,TATTACACGTGGGATA,0.16
11,TTTTCCACGTGTCTTA,0.19
12,CTCGTCACGTGTGGTC,0.23
13,TCGGGCACGTGAGGTT,0.11
14,AGGTGCACGTGGGTAC,-0.23
15,GCGGTCACGTGATATT,0.29
16,TCGGACACGTGTTGTT,-0.09
17,AAGGTCACGTGTGGTA,0.19
18,GTTGACACGTGGTTCA,-0.03
19,GTTGTCACGTGTGCAT,0.13
20,GGTATCACGTGCGGGC,0.23
21,CTGATCACGTGGAAGG,0.18
22,GTTTTCACGTGCGTGC,0.24
23,ATTATCACGTGAAGCG,0.28
24,TTTGCCACGTGTGTAA,-0.15
25,AAGTGCACGTGGAGTT,0.03

row,Sequence,relative binding free energy [kcal/mol]
1,TGGGGCACGTGTATTC,0.04
2,TAGAACACGTGGGTGT,-0.19
3,GGTGACACGTGGCAGA,0.04
4,TTTTACACGTGATTCG,0.32
5,GGGTACACGTGGGAGC,-0.1
6,TGTTACACGTGGTGTT,0.02
7,TATTTCACGTGTTTCT,0.19
8,GTTCTCACGTGGGCGG,0.15
9,TAGTTCACGTGGGCCG,0.19
10,ATAGTCACGTGGGCGA,-0.09
11,GGAATCACGTGACGTG,0.32
12,CAGGCCACGTGTGGTG,-0.1
13,GTGGTCACGTGCGTCG,0.02
14,GGAGTCACGTGATTGG,0.39
15,ATTCACACGTGGTTTT,-0.03
16,TATCACACGTGGGGTA,-0.1
17,GCGTGCACGTGTATTA,0.06
18,GGTCGCACGTGAGCGG,0.11
19,TTCGTCACGTGTGTTT,0.18
20,AGTGTCACGTGGTGGC,-0.05
21,TTTTGCACGTGTATCA,0.08
22,TGCTACACGTGGTGTA,-0.01
23,TGGGGCACGTGATCTT,-0.03
24,CTATGCACGTGGGTCG,-0.13
25,GTTTACACGTGATGAT,0.26

row,Sequence,relative binding free energy [kcal/mol]
1,AGGTGCACGTGTAGGC,-0.01
2,TATGGCACGTGGGCAT,-0.17
3,GATTGCACGTGGTCAG,-0.13
4,ATGTACACGTGAATTG,0.19
5,TAGGCCACGTGTTAGT,-0.08
6,TGCTTCACGTGATAGT,0.23
7,CTTGGCACGTGGTTTA,-0.08
8,ACGGACACGTGTGGTG,-0.1
9,TTAGGCACGTGAATGT,0.07
10,TAAGTCACGTGTACTG,0.26
11,AGTGGCACGTGGTAAG,-0.15
12,TGTCACACGTGGTCGT,0.06
13,CCTCGCACGTGGGGGT,-0.21
14,TGAATCACGTGGATTG,0.04
15,AGTTGCACGTGATGTA,0.06
16,ACGGTCACGTGTGAGT,0.12
17,GTGTCCACGTGTGAGG,0.16
18,TTGTACACGTGGTGTC,-0.07
19,AGGATCACGTGGGTTT,0.08
20,TGTCTCACGTGAGGTT,0.42
21,GGGCGCACGTGCGAGG,-0.13
22,GCTTGCACGTGGTCGG,-0.07
23,AGAAGCACGTGAAGTT,0.28
24,TCATGCACGTGGCGGT,-0.09
25,TGTCACACGTGGGGTG,-0.1

row,Sequence,relative binding free energy [kcal/mol]
1,TCTATCACGTGTGGTA,-0.03
2,CAAGTCACGTGGATGG,0.1
3,ACTGGCACGTGTAATG,0.08
4,GATGACACGTGGGGCT,0.02
5,TACTTCACGTGGGCTG,0.27
6,AGGGGCACGTGTATCT,0.02
7,AATTGCACGTGTCGTT,0.05
8,GGTGTCACGTGTTTAT,0.19
9,AAGGACACGTGGGGCG,-0.12
10,TGGCACACGTGCGGGG,-0.13
11,ATTTTCACGTGTGAGA,0.31
12,TTGGCCACGTGATGTA,-0.03
13,AGTCGCACGTGATTGA,0.16
14,TAGGACACGTGGGGCG,-0.12
15,CGTTACACGTGATTAG,0.29
16,GTGATCACGTGGGCAG,-0.12
17,GGTACCACGTGCGGGG,-0.1
18,TGTCTCACGTGATGGG,0.28
19,CGTGTCACGTGGGTCG,-0.03
20,GGTTGCACGTGATTGT,0.24
21,TCTCGCACGTGTTTGG,0.04
22,TATAACACGTGAGTAT,0.17
23,GTTAACACGTGAGGCT,0.31
24,TTACTCACGTGGTGGG,0.18
25,AGCCGCACGTGGGTGT,-0.19

row,Sequence,relative binding free energy [kcal/mol]
1,TATGTCACGTGGCTGT,0.12
2,CGGTGCACGTGGGTAG,-0.12
3,TAAAGCACGTGTTGGC,-0.11
4,AAAGTCACGTGCGGGT,0.09
5,GTAAACACGTGGGAAA,0.08
6,ATGGCCACGTGGGTGC,-0.31
7,CAGGTCACGTGGAAGT,0.23
8,GTATACACGTGGTATG,-0.14
9,GAGAACACGTGGGGTT,-0.1
10,TTTTGCACGTGTGCTC,-0.05
11,AATGTCACGTGTTCAT,0.09
12,TTTAACACGTGCGTGA,-0.09
13,ATGATCACGTGTGAAG,0.08
14,TAGAGCACGTGTCGGT,0
15,GGGCTCACGTGGGAGC,0.21
16,GCGTTCACGTGTCGGT,0.43
17,TTTAACACGTGACGGT,0.1
18,GGGTACACGTGGTACT,0.09
19,TAAAGCACGTGGTTTC,-0.06
20,TGCATCACGTGGTTGA,-0.06
21,ATAGTCACGTGTTAGG,0.14
22,CGACTCACGTGGGGTG,0.02
23,TACAGCACGTGGTTTT,-0.11
24,ATCGGCACGTGGGGTA,-0.23
25,TTGGACACGTGCGGGT,0.01

row,Sequence,relative binding free energy [kcal/mol]
1,AATGGCACGTGTTGTG,-0.12
2,ATGAGCACGTGTCTTT,-0.03
3,ATATACACGTGGAAGT,0.07
4,GTTGACACGTGTGTTA,0.11
5,TCTGACACGTGGAGGA,0.13
6,TTGGACACGTGGAGCG,0.09
7,GCTAGCACGTGAGTTT,0.23
8,CAGTTCACGTGCGGGG,0.2
9,AAATTCACGTGGTTGG,0.17
10,TTAATCACGTGGCGAT,0.1
11,GCGTTCACGTGGATTT,0.48
12,GGGGGCACGTGGTTCT,-0.17
13,TTATTCACGTGGCTTG,0.23
14,GTATACACGTGTGGCT,0.11
15,CATGGCACGTGTGAGT,0.05
16,ATTTTCACGTGCTGTG,0.26
17,CGGAGCACGTGATGGT,0.12
18,AGATACACGTGGTAGG,-0.04
19,ATAGGCACGTGTGAAT,-0.21
20,AATGGCACGTGTATCG,-0.13
21,GGCGTCACGTGTGTGC,0.13
